Experimental findings from PubChem BioAssay AID1963850 (Molecular Pharmacology Branch, DTP, NCI, 2024) are described below.

For the assay, the system named is 192522-019-R-J2-PDC complex tumor spheroid viability. The experiment in a line: Anticancer human tumor 192522-019-R-J2-PDC patient-derived colon adenocarcinoma cell line growth inhibition [POLQ]. The conditions noted are these: stronger effect = lower value. As for the experimental part:
Multicellular complex tumor spheroid response to Polymerase (POL) inhibitors (novobiocin, ART-558, RP6685) in combination with a variety of drugs and investigational agents in selected tumor cell lines
The POL inhibitors (novobiocin, ART-558, and RP6685) were evaluated both individually and in combination with standard of care and investigational anticancer small molecules within a complex spheroid model of solid tumors. . Complex spheroids include a stromal component modeled by human endothelial cells (HUVEC) and fibroblasts modeled by human mesenchymal stem cells (MSCs). The concentration ranges selected for each drug and investigational agent were based upon clinically achievable concentrations if the clinical Cmax of the agent was known.
Compounds. The drugs and investigational agents: novobiocin (NSC847541), ART-558 (NSC835418), RP-6685 (NSC848927), peposertib (NSC802822), ceralasertib (NSC780249), elimusertib (NSC800525), camonsertib (NSC841442), AZD-1390 (NSC803789), olaparib (NSC753686), talazoparib (NSC767125), rucaparib (NSC756644), sotorasib (NSC818433), MRTX-1133 (NSC836407), SN-38 (NSC673596), topotecan (NSC609699), epotoside (NSC141540), doxorubicin (NSC123127), gemcitabine (NSC613327), 5-fluorouracil (NSC19893), paclitaxel (NSC125973), vemurafenib (NSC761431), MSA-2 (NSC828583), SN-011 (NSC837082), adavosertib (NSC754352), prexasertib (NSC758257), carboplatin (NSC241240) and oxaliplatin (NSC266046), were obtained from the National Cancer Institute (NCI) Developmental Therapeutics Program Chemical Repository (21). The FDA-approved anticancer drug set is available from the Developmental Therapeutics Program at https://dtp.cancer.gov/organization/dscb/obtaining/. […] If the clinical Cmax for an agent had not been determined, the highest concentration tested was 10 microM, except for SN-38, which was tested at a high concentration of 1 microM. […]

A number of entries come with more than one value. Only these are listed. There may be further records. Values given together are repeats (runs, samples, wells, individuals or studies). Dates in brackets are months of testing.

In general, viability, T/C refers to the result in the treated group divided by that in the control group, in per cent.
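Further: spheroids exposed to drugs for seven days before reading; 100% = DMSO vehicle control viability in luminescence.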

Turning to `CCc1c2c(nc3ccc(O)cc13)-c1cc3c(c(=O)n1C2)COC(=O)[C@]3(O)CC`, the viability, T/C (compound alone 0.01 µM) was 51.5%, 64.6% [2023-10] and 78.7% [2023-11]. Turning to `COc1cccc(OCCCN)c1-c1cc(Nc2cnc(C#N)cn2)n[nH]1`, the viability, T/C (compound alone 0.01 µM) is 60% [2023-10] and 86.9%, 82% [2023-11].

Turning to `COc1cc(C2c3cc4c(cc3C(OC3OC5COC(C)OC5C(O)C3O)C3COC(=O)C23)OCO4)cc(OC)c1O` (stereo not drawn), the viability, T/C (compound alone 0.316 µM) was 90%, 98.4% [2023-10] and 117% [2023-11].
